This passage reports binding results from publication PMC3608554.

Results are given in words; binding and its absence hold for the method and conditions named. For some of these results: Binding seen in cells or lysates may run through a third protein. Some entries that bind do so weakly or less than the wild type. For some of these results: Where a sequence is shown, tags or fusion partners need not be part of it.

Test [1] deals with T1, PLCg2-V5 (human) (UniProt P16885).
T1 sequence: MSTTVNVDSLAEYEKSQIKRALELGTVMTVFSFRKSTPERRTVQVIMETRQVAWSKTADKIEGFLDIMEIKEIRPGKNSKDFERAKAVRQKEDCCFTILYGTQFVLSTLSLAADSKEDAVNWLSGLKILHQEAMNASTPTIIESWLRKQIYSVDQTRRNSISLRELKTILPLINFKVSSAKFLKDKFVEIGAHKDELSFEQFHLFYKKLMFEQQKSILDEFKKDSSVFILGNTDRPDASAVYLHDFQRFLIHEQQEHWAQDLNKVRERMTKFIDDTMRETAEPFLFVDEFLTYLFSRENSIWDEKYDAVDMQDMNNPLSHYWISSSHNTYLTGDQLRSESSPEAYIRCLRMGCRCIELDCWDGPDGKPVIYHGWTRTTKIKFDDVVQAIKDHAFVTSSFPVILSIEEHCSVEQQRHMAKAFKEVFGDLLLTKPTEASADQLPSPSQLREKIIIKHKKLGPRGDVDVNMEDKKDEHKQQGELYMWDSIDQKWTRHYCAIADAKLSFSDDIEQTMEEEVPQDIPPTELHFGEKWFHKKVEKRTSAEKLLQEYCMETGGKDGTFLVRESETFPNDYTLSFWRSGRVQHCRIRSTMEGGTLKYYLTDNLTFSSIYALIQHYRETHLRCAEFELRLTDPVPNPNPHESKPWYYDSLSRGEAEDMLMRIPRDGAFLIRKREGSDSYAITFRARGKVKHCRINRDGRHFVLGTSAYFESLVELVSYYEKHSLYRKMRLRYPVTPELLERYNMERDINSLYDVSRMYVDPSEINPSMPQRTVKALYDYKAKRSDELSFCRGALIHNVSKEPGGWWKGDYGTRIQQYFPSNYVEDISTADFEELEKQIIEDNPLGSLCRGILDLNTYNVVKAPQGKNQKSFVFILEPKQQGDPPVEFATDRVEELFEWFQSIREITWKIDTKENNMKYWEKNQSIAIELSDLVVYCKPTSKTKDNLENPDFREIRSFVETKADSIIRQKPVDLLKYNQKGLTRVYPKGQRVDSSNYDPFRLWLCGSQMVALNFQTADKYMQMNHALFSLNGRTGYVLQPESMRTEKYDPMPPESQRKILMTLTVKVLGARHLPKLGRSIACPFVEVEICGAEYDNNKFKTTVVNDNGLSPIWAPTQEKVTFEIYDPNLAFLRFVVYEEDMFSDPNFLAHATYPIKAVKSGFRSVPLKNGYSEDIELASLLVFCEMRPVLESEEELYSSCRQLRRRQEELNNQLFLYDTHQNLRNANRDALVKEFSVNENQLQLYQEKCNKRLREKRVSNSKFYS
In words: co-IP; HEK293 cells expressing BANK1 and PLCg2 only, no kinase co-expressed.

Test [2] has as its target T1, PLCg2-V5 (human). The experiment in a line: condition: only co-expressed with GFP, no active kinase; co-IP; HEK293 co-transfected with Flag-BANK1, PLCg2-V5 and GFP-V5 (no kinase activity); IP anti-PLCg2, blot anti-BANK1.
The target in test [3] is T1, PLCg2-V5 (human). In words: condition: only co-expressed with kinase dead BLK-KL, no active kinase; co-IP; HEK293 co-transfected with Flag-BANK1, PLCg2-V5 and kinase dead BLK-KL-V5 (K269L); IP anti-PLCg2, blot anti-BANK1.
The target of test [4] is T2, PLCg2, endogenous in human B-cell lines (human (endogenous in Daudi)) (UniProt P16885).
T2 sequence: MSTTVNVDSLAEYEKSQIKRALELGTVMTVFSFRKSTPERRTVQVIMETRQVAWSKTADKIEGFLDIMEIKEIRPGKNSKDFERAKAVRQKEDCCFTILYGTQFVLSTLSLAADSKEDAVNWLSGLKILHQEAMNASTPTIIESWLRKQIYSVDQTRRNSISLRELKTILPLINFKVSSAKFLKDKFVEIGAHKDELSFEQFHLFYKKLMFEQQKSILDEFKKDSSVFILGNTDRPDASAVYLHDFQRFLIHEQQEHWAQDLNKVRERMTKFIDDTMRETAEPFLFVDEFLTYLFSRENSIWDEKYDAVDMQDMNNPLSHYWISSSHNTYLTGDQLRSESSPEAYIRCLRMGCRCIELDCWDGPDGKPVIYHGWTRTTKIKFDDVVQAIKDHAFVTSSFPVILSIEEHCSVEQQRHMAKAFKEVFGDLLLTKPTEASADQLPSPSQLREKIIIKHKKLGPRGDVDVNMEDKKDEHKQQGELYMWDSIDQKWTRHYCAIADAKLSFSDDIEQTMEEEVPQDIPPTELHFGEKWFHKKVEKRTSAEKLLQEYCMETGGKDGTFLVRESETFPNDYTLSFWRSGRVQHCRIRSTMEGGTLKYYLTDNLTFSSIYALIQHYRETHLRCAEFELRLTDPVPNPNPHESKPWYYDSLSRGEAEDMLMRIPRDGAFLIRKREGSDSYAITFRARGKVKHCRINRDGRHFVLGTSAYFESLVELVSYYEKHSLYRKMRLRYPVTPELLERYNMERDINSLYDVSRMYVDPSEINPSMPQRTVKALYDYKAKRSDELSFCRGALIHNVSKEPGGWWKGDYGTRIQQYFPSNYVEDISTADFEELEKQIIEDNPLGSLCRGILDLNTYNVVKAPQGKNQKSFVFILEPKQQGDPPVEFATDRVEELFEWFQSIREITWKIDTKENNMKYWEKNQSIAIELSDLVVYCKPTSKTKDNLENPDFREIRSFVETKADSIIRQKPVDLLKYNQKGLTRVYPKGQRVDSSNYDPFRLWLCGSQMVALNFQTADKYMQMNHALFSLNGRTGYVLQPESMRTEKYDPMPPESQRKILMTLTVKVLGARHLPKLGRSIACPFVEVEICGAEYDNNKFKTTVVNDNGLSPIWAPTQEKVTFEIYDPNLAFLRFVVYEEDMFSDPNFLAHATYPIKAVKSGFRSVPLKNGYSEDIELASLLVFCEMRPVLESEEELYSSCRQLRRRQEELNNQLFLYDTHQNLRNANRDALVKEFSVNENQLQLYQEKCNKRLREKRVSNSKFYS
The experiment in a line: proximity ligation; in situ PLA (Duolink II), endogenous proteins in fixed non-stimulated Daudi and RL cells; rabbit anti-BANK1 and mouse anti-PLCg2.

Test [5] has as its target T2, PLCg2, endogenous in human B-cell lines (human (endogenous in Daudi)). The experiment in a line: co-IP; endogenous proteins, Daudi cells stimulated with 10 ug/mL goat F(ab')2 anti-human IgM; 1% NP-40 lysate; IP anti-PLCg2 and blot anti-BANK1, or reverse IP anti-BANK1 and blot anti-PLCg2; also in shControl and BLK-silenced (shBLK) Daudi cells, where the association was reduced.

Test [6] has the same target. The experiment in a line: proximity ligation; in situ PLA (Duolink II), endogenous proteins in fixed Daudi and RL cells (also an EBV-transformed B cell line) stimulated with anti-human IgM F(ab')2; rabbit anti-BANK1 and mouse anti-PLCg2; maximum at 1 min, back to the initial level after 15-20 min; also in shControl and BLK-silenced Daudi cells.
The target in test [7] is T3, BANK1 N-terminal truncated form (aa 331–785), yeast two-hybrid bait (human) (UniProt Q8NDB2).
T3 sequence: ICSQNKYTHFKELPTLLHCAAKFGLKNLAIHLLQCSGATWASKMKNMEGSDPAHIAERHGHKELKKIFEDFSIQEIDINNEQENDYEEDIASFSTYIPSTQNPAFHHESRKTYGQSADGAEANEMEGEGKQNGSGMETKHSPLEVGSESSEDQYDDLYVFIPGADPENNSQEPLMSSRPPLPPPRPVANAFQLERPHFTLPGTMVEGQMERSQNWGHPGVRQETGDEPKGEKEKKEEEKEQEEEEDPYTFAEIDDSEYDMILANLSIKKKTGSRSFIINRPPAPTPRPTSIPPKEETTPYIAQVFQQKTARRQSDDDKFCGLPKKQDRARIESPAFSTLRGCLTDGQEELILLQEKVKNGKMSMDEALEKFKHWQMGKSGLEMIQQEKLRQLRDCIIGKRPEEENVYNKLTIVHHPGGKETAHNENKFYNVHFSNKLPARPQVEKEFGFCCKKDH
In words: two-hybrid; screen by Hybrigenics; bait truncated BANK1 (aa 331-785), not autoactivating, against a human leukocyte and mononuclear cell library; 6x10^6 interactions tested.

B1: Flag-BANK1 full-length, expressed in HEK293 cells without an active kinase (protein, UniProt Q8NDB2 1-785)
chain: MLPAAPGKGLGSPDPAPCGPAPPGNTKDIIMIYEEDAEEWALYLTEVFLHVVKREAILLYRLENFSFRHLELLNLTSYKCKLLILSNSLLRDLTPKKCQFLEKILHSPKSVVTLLCGVKSSDQLYELLNISQSRWEISTEQEPEDYISVIQSIIFKDSEDYFEVNIPTDLRAKHSGEISERKEIEELSEASRNTIPLAVVLPTEIPCENPGEIFIILRDEVIGDTVEVEFTSSNKRIRTRPALWNKKVWCMKALEFPAGSVHVNVYCDGIVKATTKIKYYPTAKAKECLFRMADSGESLCQNSIEELDGVLTSIFKHEIPYYEFQSLQTEICSQNKYTHFKELPTLLHCAAKFGLKNLAIHLLQCSGATWASKMKNMEGSDPAHIAERHGHKELKKIFEDFSIQEIDINNEQENDYEEDIASFSTYIPSTQNPAFHHESRKTYGQSADGAEANEMEGEGKQNGSGMETKHSPLEVGSESSEDQYDDLYVFIPGADPENNSQEPLMSSRPPLPPPRPVANAFQLERPHFTLPGTMVEGQMERSQNWGHPGVRQETGDEPKGEKEKKEEEKEQEEEEDPYTFAEIDDSEYDMILANLSIKKKTGSRSFIINRPPAPTPRPTSIPPKEETTPYIAQVFQQKTARRQSDDDKFCGLPKKQDRARIESPAFSTLRGCLTDGQEELILLQEKVKNGKMSMDEALEKFKHWQMGKSGLEMIQQEKLRQLRDCIIGKRPEEENVYNKLTIVHHPGGKETAHNENKFYNVHFSNKLPARPQVEKEFGFCCKKDH
Consider B1, for which the binding entry with PLCg2-V5 (human) [1] is listed as “binds weakly”; in the test with PLCg2-V5 (human) [2] it was “no binding”; in the test with PLCg2-V5 (human) [3] it was “no binding”.

B2: BANK1, endogenous in human B-cell lines (protein, UniProt Q8NDB2 1-785)
chain: MLPAAPGKGLGSPDPAPCGPAPPGNTKDIIMIYEEDAEEWALYLTEVFLHVVKREAILLYRLENFSFRHLELLNLTSYKCKLLILSNSLLRDLTPKKCQFLEKILHSPKSVVTLLCGVKSSDQLYELLNISQSRWEISTEQEPEDYISVIQSIIFKDSEDYFEVNIPTDLRAKHSGEISERKEIEELSEASRNTIPLAVVLPTEIPCENPGEIFIILRDEVIGDTVEVEFTSSNKRIRTRPALWNKKVWCMKALEFPAGSVHVNVYCDGIVKATTKIKYYPTAKAKECLFRMADSGESLCQNSIEELDGVLTSIFKHEIPYYEFQSLQTEICSQNKYTHFKELPTLLHCAAKFGLKNLAIHLLQCSGATWASKMKNMEGSDPAHIAERHGHKELKKIFEDFSIQEIDINNEQENDYEEDIASFSTYIPSTQNPAFHHESRKTYGQSADGAEANEMEGEGKQNGSGMETKHSPLEVGSESSEDQYDDLYVFIPGADPENNSQEPLMSSRPPLPPPRPVANAFQLERPHFTLPGTMVEGQMERSQNWGHPGVRQETGDEPKGEKEKKEEEKEQEEEEDPYTFAEIDDSEYDMILANLSIKKKTGSRSFIINRPPAPTPRPTSIPPKEETTPYIAQVFQQKTARRQSDDDKFCGLPKKQDRARIESPAFSTLRGCLTDGQEELILLQEKVKNGKMSMDEALEKFKHWQMGKSGLEMIQQEKLRQLRDCIIGKRPEEENVYNKLTIVHHPGGKETAHNENKFYNVHFSNKLPARPQVEKEFGFCCKKDH
Regarding B2, the binding entry in test [4] was “binds weakly”; in test [5], “binds”; in test [6] it was “binds”.

B3: Saposin C, two-hybrid prey (domain or fragment, UniProt P07602 311-390)
chain: SDVYCEVCEFLVKEVTKLIDNNKTEKEILDAFDKMCSKLPKSLSEECQEVVDTYGSSILSILLEEVSPELVCSMLHLCSG
For the molecule B3, the binding entry in test [7] was “binds”.
